Patent publication US7687508B2, “Cyclic derivatives as modulators of chemokine receptor activity” (Bristol-Myers Squibb Company, priority 2006, dated 2010)

Test system: Sodium Channel, Site 2

Structure (SMILES) | Na+ channel binding (% inhibition) (10,000 nM) | Na+ channel binding (% inhibition) (30,000 nM)
CO[C@@H]1CC[C@H](N2CC[C@H](Nc3ncnc4ccc(C(F)(F)F)cc34)C2=O)[C@H](CNC(C)=O)C1 [Example 15, N-(((1S,2S,5R)-5-methoxy-2-((3S)-2-oxo-3-((6-(trifluoromethyl)-4-quinazolinyl)amino)-1-pyrrolidinyl)cyclohexyl)methyl)acetamide] | −5%, 10,000 nM | 5%, 30,000 nM
CC(C)(C)N[C@@H]1CC[C@H](N2CC[C@H](NC(=O)c3ccnc(C(C)(C)C)n3)C2=O)[C@H](NS(C)(=O)=O)C1 [Example 11, 2-tert-butyl-N—((S)-1-((1S,2R,4R)-4-(tert-butylamino)-2-(methylsulfonamido)cyclohexyl)-2-oxopyrrolidin-3-yl)pyrimidine-4-carboxamide] | 14%, 10,000 nM | 34%, 30,000 nM
CC(=O)N[C@@H]1C[C@H](N(C)C)CC[C@@H]1N1CC[C@H](Nc2ncnc3ccc(C(F)(F)F)cc23)C1=O [Example 8, N-((1R,2S,5R)-5-(dimethylamino)-2-((3S)-2-oxo-3-((6-(trifluoromethyl)-4-quinazolinyl)amino)-1-pyrrolidinyl)cyclohexyl)acetamide] | −14%, 10,000 nM | 19%, 30,000 nM
CC(=O)N[C@@H]1C[C@H](N(C)C(C)C)CC[C@@H]1N1CC[C@H](Nc2ncnc3cnc(C(C)(C)C)nc23)C1=O [Example 1, N-((1R,2S,5R)-2-((3S)-3-((6-tert-butylpyrimido[5,4-d]pyrimidin-4-yl)amino)-2-oxo-1-pyrrolidinyl)-5-(isopropyl(methyl)amino)cyclohexyl)acetamide] | 13%, 10,000 nM | 6%, 30,000 nM
CN[C@@H]1CC[C@H](N2CC[C@H](Nc3ncnc4ccc(C(F)(F)F)cc34)C2=O)[C@H](NC(C)=O)C1 [Example 3, N-((1R,2S,5R)-5-(methylamino)-2-((3S)-2-oxo-3-((6-(trifluoromethyl)-4-quinazolinyl)amino)-1-pyrrolidinyl)cyclohexyl)acetamide] | 17%, 10,000 nM | 42%, 30,000 nM
CC(C)(C)N[C@@H]1CC[C@H](N2CC[C@H](Nc3ncnc4cnc(C(C)(C)C)nc34)C2=O)[C@H](NS(C)(=O)=O)C1 [Example 13, N-((1R,2S,5R)-5-(tert-butylamino)-2-((3S)-3-((6-tert-butylpyrimido[5,4-d]pyrimidin-4-yl)amino)-2-oxo-1-pyrrolidinyl)cyclohexyl)methanesulfonamide] | 5%, 10,000 nM | 21%, 30,000 nM
CCC(=O)N[C@@H]1C[C@H](N)CC[C@@H]1N1CC[C@H](Nc2ncnc3ccc(C(F)(F)F)cc23)C1=O [Example 10, N-((1R,2S,5R)-5-amino-2-((3S)-2-oxo-3-((6-(trifluoromethyl)-4-quinazolinyl)amino)-1-pyrrolidinyl)cyclohexyl)propanamide] | 18%, 10,000 nM | 45%, 30,000 nM
CCC(=O)N[C@@H]1C[C@H](NC(C)(C)C)CC[C@@H]1N1CC[C@H](NC(=O)c2ccnc(C(C)(C)C)n2)C1=O [Example 12, 2-tert-butyl-N-((3S)-1-((1S,2R,4R)-4-(tert-butylamino)-2-(propionylamino)cyclohexyl)-2-oxo-3-pyrrolidinyl)-4-pyrimidinecarboxamide] | 18%, 10,000 nM | 36%, 30,000 nM
CC(=O)N[C@@H]1C[C@H](N(C)C(C)C)CC[C@@H]1N1CC[C@H](NC(=O)c2cccc(C(C)(C)C)n2)C1=O [Example 9, N-((3S)-1-((1S,2R,4R)-2-acetamido-4-(isopropyl(methyl)amino)cyclohexyl)-2-oxo-3-pyrrolidinyl)-6-tert-butyl-2-pyridinecarboxamide] | 13%, 10,000 nM | 48%, 30,000 nM
CC(C)N(C)[C@@H]1CC[C@H](N2CC[C@H](Nc3ncnc4ccc(C(F)(F)F)cc34)C2=O)[C@H](NC=O)C1 [Example 7, N-((1R,2S,5R)-5-(isopropyl(methyl)amino)-2-((S)-2-oxo-3-(6-(trifluoromethyl)quinazolin-4-ylamino)pyrrolidin-1-yl)cyclohexyl)formamide] | 22%, 10,000 nM | 44%, 30,000 nM

Read-outs that look alike come from different tables or passages of the source.
